# Measurements from PubChem BioAssay (Tox21).
# “And” between values parts separate entries of the source, which are not always exact repeats. Equal values may be shown once. This list was built around the results that the source calls inconclusive (neither active nor inactive); the mix of calls is not that of the screen. For some of these results: Potencies of inconclusive entries are doubtful fits and often do not repeat. The source made the active and inactive calls. Unless noted, calls come from the whole dose curve; as a rule, active = well fitted curve in the direction sought with a large enough effect in the repeat runs; inconclusive = weak or mixed curves; inactive = no such curve, though single readings can be large; an effect the other way counts as inactive or inconclusive.
# How the values were obtained:
# [1] = A CellTox Green Cytotoxicity Assay to monitor cytotoxicity in HepG2 cells - 8 hour (AID 1224890); note: nearly all actives have a fitted effect of over 45% in size
# How it was run: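 Read-out is fluorescence of a cyanine dye excluded from live cells that stains DNA of dead HepG2 cells, with signal proportional to cytotoxicity. Plates were read at 0, 8, 16, 24, 32 and 40 h after compound addition.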
# [2] = qHTS assay to identify small molecule antagonists of the androgen receptor (AR) signaling pathway using the MDA cell line in the presence of 0.5 nM R1881 - cell viability counter screen (AID 1259242); note: nearly all actives have a fitted effect of over 45% in size
# How it was run: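 Counter screen for cytotoxicity run in the same wells as the AR antagonist reporter screen: MDA-kb2 cells were treated 16 hr with test compounds and 0.5 nM R1881, then live-cell protease activity was measured by fluorescence.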
# [3] = qHTS assay to identify small molecule phospholipidosis (PLD) inducers (AID 1259344; active = well fitted curve in the direction sought with a large enough effect; inconclusive = small, poorly fitted or top-dose-only effect, or another doubt; inactive = no such curve, though single readings can be large; an effect the other way counts as inactive or inconclusive)
# How it was run: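 Quantitative HTS in HepG2: compound plus LipidTOX Red dye for 24 h, paraformaldehyde fixation with Hoechst 33342, widefield high-content imaging; amiodarone as positive and DMSO as negative control.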
# [4] = qHTS assay to identify small molecule agonists of the sonic hedgehog signaling (Shh) pathway - cell viability counter screen (AID 1259366); note: nearly all actives have a fitted effect of over 50% in size
# How it was run: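 NIH/3T3-derived Gli1-Luc reporter cells, 2,000 per well, received compound after 4 h and were treated about 23 h at 37C. Viability measured in the same wells by CellTiter-Fluor fluorescence after 1 h.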
# [5] = qHTS assay to identify small molecule antagonists of the sonic hedgehog signaling (Shh) pathway - cell viability counter screen (AID 1259367); note: nearly all actives have a fitted effect of over 55% in size
# How it was run: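 Seed 3T3 Gli1-Luc cells at 2,000 per well; incubate 4 hr; add compound in DMSO, then conditioned medium; incubate at 37C with 5% CO2; add CellTiter-Fluor after 23 hr; read fluorescence 1 hr later.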
# [6] = biological target: Estrogen receptor beta (Homo sapiens) (UniProt Q92731); assay: qHTS assay to identify small molecule antagonists of the estrogen receptor beta (ER-beta) signaling pathway (AID 1259378; active = well fitted inhibition curve with a large enough effect in the signal ratio in the repeat runs, not every such curve was filed as active; inconclusive = weak or mixed curves, or effect the other way; inactive = no such curve, though single readings can be large or run the other way; the % refers to the signal ratio); settings: ER-beta-UAS-bla HEK293T, beta-lactamase FRET ratio, 16 h; series mostly up to 92.4 µM
# Chain of UniProt Q92731 (Q92731 whole entry, looked up): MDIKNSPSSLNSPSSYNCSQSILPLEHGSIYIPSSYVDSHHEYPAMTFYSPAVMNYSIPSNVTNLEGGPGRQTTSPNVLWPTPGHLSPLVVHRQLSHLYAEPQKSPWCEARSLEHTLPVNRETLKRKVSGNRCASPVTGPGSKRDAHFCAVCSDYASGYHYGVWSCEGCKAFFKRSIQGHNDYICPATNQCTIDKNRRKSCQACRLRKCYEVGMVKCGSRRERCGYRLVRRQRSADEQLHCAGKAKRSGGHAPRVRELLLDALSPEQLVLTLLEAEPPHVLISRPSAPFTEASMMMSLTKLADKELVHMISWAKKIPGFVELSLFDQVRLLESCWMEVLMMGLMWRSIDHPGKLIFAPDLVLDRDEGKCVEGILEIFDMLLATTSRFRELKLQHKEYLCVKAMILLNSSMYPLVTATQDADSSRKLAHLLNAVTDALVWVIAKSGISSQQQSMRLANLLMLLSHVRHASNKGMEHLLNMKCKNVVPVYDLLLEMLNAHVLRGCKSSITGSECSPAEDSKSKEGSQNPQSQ
# How it was run: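 ER-beta-UAS-bla HEK293T cells in 2% charcoal-stripped FBS medium treated with compound plus 1nM final 17-beta-estradiol for 16 hr at 37C. Beta-lactamase reporter read by FRET substrate fluorescence after 2 hours at room temperature.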
# [7] = qHTS assay to identify small molecule agonists of the androgen receptor (AR) signaling pathway in the presence of an antagonist - cell viability counter screen (AID 1259379); note: nearly all actives have a fitted effect of over 25% in size
# How it was run: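 Cells: MDA-kb2 (MMTV-luc, AR and GR elements), 3,000/well, 5 hr settle. Added: nilutamide 3.0uM final, then compounds (15 conc.). Incubation: 16 hr, 37C, no CO2. Read-out: CellTiter-Fluor, 1 hr, fluorescence.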
# [8] = qHTS assay to identify small molecule agonists of the estrogen receptor beta (ER-beta) signaling pathway - cell viability counter screen (AID 1259380); note: nearly all actives have a fitted effect of over 30% in size
# How it was run: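 HEK293T ER-beta-UAS-bla; 2% CS-FBS; 6 hr pre-plate, 16 hr cpd at 37C/5% CO2; LiveBLAzer read first, then CellTiter-Glo 30 min RT, luminescence.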
# [9] = qHTS assay to identify small molecule antagonists of the estrogen receptor beta (ER-beta) signaling pathway - cell viability counter screen (AID 1259382); note: nearly all actives have a fitted effect of over 55% in size
# How it was run: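 Cells: ER-beta-UAS-bla HEK293T, 2,000/well, 2% CS-FBS, 6 hr settle. Cpd + E2 (1nM final), 16 hr, 37C/5% CO2. Bla FRET substrate 2 hr RT, then CellTiter-Glo 30 min RT, luminescence.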
# [10] = qHTS assay to identify small molecule antagonists of the sonic hedgehog signaling (Shh) pathway (AID 1259369; calls by dose curve; note: nearly all actives have a fitted effect of over 45% in size)
# How it was run: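 3T3Gli1-Luc, conditioned-medium-stimulated, 24hr cpd, 37C/5% CO2; Gli1-driven firefly Luc luminescence after 30min RT with luciferase reagent. Cells plated 4hr before cpd.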
# [11] = qHTS assay to identify small molecule antagonists of the estrogen receptor alpha (ER-alpha) signaling pathway using the BG1 cell line in the presence of 0.1 nM 17-beta-estradiol - cell viability counter screen (AID 1259241); note: nearly all actives have a fitted effect of over 40% in size
# How it was run: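 VM7Luc4E2 cells (endogenous full-length ER-alpha, 4xERE-luciferase), cultured 5 days in charcoal-stripped serum, exposed to compounds with 0.1 nM 17beta-estradiol (final) for 22 hr at 37C. Viability read in same wells as live-cell protease fluorescence after 30 min.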
# [12] = biological target: Estrogen receptor beta (Homo sapiens) (UniProt Q92731); assay: qHTS assay to identify small molecule agonists of the estrogen receptor beta (ER-beta) signaling pathway (AID 1259377; active = well fitted activation curve with a large enough effect in the signal ratio in the repeat runs, not every such curve was filed as active; inconclusive = weak or mixed curves, or effect the other way; the % refers to the signal ratio); settings: ER-beta-UAS-bla HEK293T, beta-lactamase FRET ratio, 16 h; series mostly up to 92.4 µM
# How it was run: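 ER-beta-UAS-bla HEK293T cells in medium with 2% charcoal-stripped FBS were exposed to compounds for 16 h at 37C. Beta-lactamase reporter activity was read as fluorescence after 2 h with LiveBLAzer B/G FRET substrate at room temperature.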
# Potency is the fitted concentration of half-maximal effect; tags give direction and shape of the fitted curve or compound fluorescence and quenching.
Structure (SMILES),Potency [1],Potency [2],Potency [3],Potency [4],Potency [5],Potency [6],Potency [7],Potency [8],Potency [9],Potency [10],Potency [11],Potency [12]
CN1CCN(C2Cc3ccccc3Sc3ccc(Cl)cc32)CC1 (stereo not drawn),"inconclusive: 26.8 µM [activator, single point]","inconclusive: 33.5 µM [cytotoxic, partial curve, poor fit]","inconclusive: 11.2 µM [activator, single point]",inconclusive: 29.8 µM [cytotoxic],"inconclusive: 21.1 µM [cytotoxic, partial curve, poor fit]","inconclusive: 15 µM [rising, full curve]",inconclusive: 33.5 µM [cytotoxic],active: 21.1 µM,,,,
CN(C)[C@@H](CCOc1cccc2ccccc12)c1ccccc1,"inconclusive: 30.1 µM [activator, partial curve, poor fit]",inconclusive: 29.8 µM [cytotoxic],,"inconclusive: 33.5 µM [cytotoxic, single point]","inconclusive: 29.8 µM [cytotoxic, partial curve, poor fit]",active: 29.8 µM,active: 29.8 µM,,active: 15 µM,,,
OC1CCCCCCCCCCC1,"inconclusive: 55.5 µM [activator, partial curve, poor fit] and active: 43.6 µM",inactive,,,,,,"inactive and inconclusive: 13.7 µM [cytotoxic, partial curve]",,"inconclusive: 61.7 µM [inhibitor, single point]",,
[Cl][Au]([Cl])[Cl],"inconclusive: 54.9 µM [activator, single point]",active: 24.3 µM,,active: 3.86 µM,active: 4.86 µM,"inconclusive: 5.45 µM [rising, full curve]",,"inconclusive: 77 µM [cytotoxic, single point]","inconclusive: 68.6 µM [cytotoxic, single point]",,active: 68.6 µM,"inconclusive: 0.686 µM [rising, full curve, poor fit]"
